Experimental data: US20110020312A1, “METHODS FOR TREATMENT OF METABOLIC DISORDERS USING EPIMETABOLIC SHIFTERS, MULTIDIMENSIONAL INTRACELLULAR MOLECULES, OR ENVIRONMENTAL INFLUENCERS” (priority 2009, published 2011)

Key:
SK-MEL-28 cells [1] = assay: Real-time PCR Apoptosis Array; type: cell-based
Procedure: The formulation of the Q10 was as follows. […] The resulting solution was warmed in a 65° C. water bath and vortexed at high speed. […] For the control vehicle, 9.5 mL of media was added to 500 μL of isopropanol. The control stock was further diluted (2 mL of stock) with 8 mL of media.
RNA was quantified by measuring Optical Density at 260 nm.
(SABiosciences, Frederick, Md.).
A vehicle was prepared in parallel with a similar protocol except that the Coenzyme Q10 was not added.

SK-MEL-28 cells [2] = assay: Real-time PCR Oxidative Stress and Antioxidant Defense Array; type: cell-based; conditions: for MBL2 mRNA level change / NCF1 mRNA level change / NCF2 mRNA level change / NME5 mRNA level change / PRDX5 mRNA level change / PREX1 mRNA level change / PRNP mRNA level change / PTGS2 mRNA level change / RPL13A mRNA level change / SGK2 mRNA level change / SIRT2 mRNA level change / APOE mRNA level change / BNIP3 mRNA level change / CAT mRNA level change / CCS mRNA level change / CYBA mRNA level change / DUSP1 mRNA level change / FOXM1 mRNA level change: SKMEL-28, 100 μM
Procedure: The resulting solution was warmed in a 65° C. water bath and vortexed at high speed. […] For the control vehicle, 9.5 mL of media was added to 500 μL of isopropanol. The control stock was further diluted (2 mL of stock) with 8 mL of media. […] Experimental details: […] (SABiosciences, Frederick, Md.). […] Further experiments were carried out using SKMEL-28 cells. […] The PCR array (SABiosciences) is a set of optimized real-time PCR primer assays on 96-well plates for pathway or disease focused genes as well as appropriate RNA quality controls. The PCR array performs gene expression analysis with real-time PCR sensitivity and the multi-gene profiling capability of a microarray.

COC1=C(OC)C(=O)C(C/C=C(\C)CC/C=C(\C)CC/C=C(\C)CC/C=C(\C)CC/C=C(\C)CC/C=C(\C)CC/C=C(\C)CC/C=C(\C)CC/C=C(\C)CCC=C(C)C)=C(C)C1=O [Q10, Coenzyme Q10]
tumor protein p73 mRNA (SK-MEL-28 cells [1]; 100 μM Q10): strong down regulation
Caspase-9 mRNA (SK-MEL-28 cells [1]; 16 hour): upregulation
MBL2 mRNA level change (SK-MEL-28 cells [2]; 16 hr): −1.9072
NCF1 mRNA level change (SK-MEL-28 cells [2]; 16 hr): high
NCF2 mRNA level change (SK-MEL-28 cells [2]; 16 hr): 3.0077
NME5 mRNA level change (SK-MEL-28 cells [2]; 16 hr): 3.1138
PRDX5 mRNA level change (SK-MEL-28 cells [2]; 16 hr): 3.0454
PREX1 mRNA level change (SK-MEL-28 cells [2]; 16 hr): 2.867
PRNP mRNA level change (SK-MEL-28 cells [2]; 16 hr): 3.5236
PTGS2 mRNA level change (SK-MEL-28 cells [2]; 16 hr): 2.7046
RPL13A mRNA level change (SK-MEL-28 cells [2]; 16 hr): 3.1857
SGK2 mRNA level change (SK-MEL-28 cells [2]; 16 hr): 0
SIRT2 mRNA level change (SK-MEL-28 cells [2]; 16 hr): 4.0829
APOE mRNA level change (SK-MEL-28 cells [2]; 24 hr): −0.9543
BNIP3 mRNA level change (SK-MEL-28 cells [2]; 24 hr): 4.312
CAT mRNA level change (SK-MEL-28 cells [2]; 24 hr): 0.1046
CCS mRNA level change (SK-MEL-28 cells [2]; 24 hr): 3.452
CYBA mRNA level change (SK-MEL-28 cells [2]; 24 hr): 3.9208
DUSP1 mRNA level change (SK-MEL-28 cells [2]; 24 hr): 2.7713
FOXM1 mRNA level change (SK-MEL-28 cells [2]; 24 hr): −0.9216
MBL2 mRNA level change (SK-MEL-28 cells [2]; 24 hr): −3.0142
NCF1 mRNA level change (SK-MEL-28 cells [2]; 24 hr): 3.3829
NCF2 mRNA level change (SK-MEL-28 cells [2]; 24 hr): 0.0954
NME5 mRNA level change (SK-MEL-28 cells [2]; 24 hr): 3.3694
PRDX5 mRNA level change (SK-MEL-28 cells [2]; 24 hr): 3.5381
PREX1 mRNA level change (SK-MEL-28 cells [2]; 24 hr): 0.3222
PRNP mRNA level change (SK-MEL-28 cells [2]; 24 hr): 2.9086
PTGS2 mRNA level change (SK-MEL-28 cells [2]; 24 hr): 2.6552
RPL13A mRNA level change (SK-MEL-28 cells [2]; 24 hr): 2.5492
SGK2 mRNA level change (SK-MEL-28 cells [2]; 24 hr): 0
SIRT2 mRNA level change (SK-MEL-28 cells [2]; 24 hr): 4.4766
APOE mRNA level change (SK-MEL-28 cells [2]; 48 hr): 3.7694
BNIP3 mRNA level change (SK-MEL-28 cells [2]; 48 hr): −18.2069
CAT mRNA level change (SK-MEL-28 cells [2]; 48 hr): 3.8557
CCS mRNA level change (SK-MEL-28 cells [2]; 48 hr): 2.9801
CYBA mRNA level change (SK-MEL-28 cells [2]; 48 hr): 6.2452
DUSP1 mRNA level change (SK-MEL-28 cells [2]; 48 hr): 3.321
FOXM1 mRNA level change (SK-MEL-28 cells [2]; 48 hr): 3.3655
MBL2 mRNA level change (SK-MEL-28 cells [2]; 48 hr): −1.1854
NCF1 mRNA level change (SK-MEL-28 cells [2]; 48 hr): 15.7838
NCF2 mRNA level change (SK-MEL-28 cells [2]; 48 hr): 5.476
NME5 mRNA level change (SK-MEL-28 cells [2]; 48 hr): 3.1549
PRDX5 mRNA level change (SK-MEL-28 cells [2]; 48 hr): 4.7955
PREX1 mRNA level change (SK-MEL-28 cells [2]; 48 hr): 6.3719
PRNP mRNA level change (SK-MEL-28 cells [2]; 48 hr): 5.0837
PTGS2 mRNA level change (SK-MEL-28 cells [2]; 48 hr): 4.0553
RPL13A mRNA level change (SK-MEL-28 cells [2]; 48 hr): 4.9253
SGK2 mRNA level change (SK-MEL-28 cells [2]; 48 hr): 0.5995
SIRT2 mRNA level change (SK-MEL-28 cells [2]; 48 hr): 5.7166
APOE mRNA level change (SK-MEL-28 cells [2]; 72 hr): 5.3315
BNIP3 mRNA level change (SK-MEL-28 cells [2]; 72 hr): −4.8424
CAT mRNA level change (SK-MEL-28 cells [2]; 72 hr): 5.3988
CCS mRNA level change (SK-MEL-28 cells [2]; 72 hr): 6.1539
CYBA mRNA level change (SK-MEL-28 cells [2]; 72 hr): 5.0762
DUSP1 mRNA level change (SK-MEL-28 cells [2]; 72 hr): 5.5375
FOXM1 mRNA level change (SK-MEL-28 cells [2]; 72 hr): −10.0953
MBL2 mRNA level change (SK-MEL-28 cells [2]; 72 hr): −6.4544
NCF1 mRNA level change (SK-MEL-28 cells [2]; 72 hr): 31.5369
NCF2 mRNA level change (SK-MEL-28 cells [2]; 72 hr): 0
NME5 mRNA level change (SK-MEL-28 cells [2]; 72 hr): 5.782
PRDX5 mRNA level change (SK-MEL-28 cells [2]; 72 hr): 6.0169
PREX1 mRNA level change (SK-MEL-28 cells [2]; 72 hr): 7.476
PRNP mRNA level change (SK-MEL-28 cells [2]; 72 hr): −3.9396
PTGS2 mRNA level change (SK-MEL-28 cells [2]; 72 hr): −3.3022
RPL13A mRNA level change (SK-MEL-28 cells [2]; 72 hr): 7.82
SGK2 mRNA level change (SK-MEL-28 cells [2]; 72 hr): 5.937
SIRT2 mRNA level change (SK-MEL-28 cells [2]; 72 hr): 6.6257
Nitric oxide synthase 2A (NOS2A) mRNA (SK-MEL-28 cells [2]; early): second major early induced protein
Neutrophil cytosolic factor 2 (NCF2) mRNA (SK-MEL-28 cells [2]; observed at 6 hours): one of the initial top induced mRNA's
